The values below come from patent publication US20250002564A1 (HOSPITAL FOR SICK CHILDREN, published 2025).

Assay [1] concerns the target T1, SARS-CoV-2 Spike on wild-type pseudotyped virus (PsV) (SARS-CoV-2). Put plainly: cell-based or functional assay.
Assay [2] deals with T1, SARS-CoV-2 Spike on wild-type …. Nature of the assay: cell-based or functional assay. The source holds these as a separate data set.

Where “and” joins values, the source holds several entries; their conditions need not be identical. Equal values may be shown once.

B1: MB 64 (other)
chain 1: DIQMTQSPSSLSASVGDRVTITCRASQGISSHLAWYQQKPGKAPKLLIYDASNLETGVPSRFSGSGSGTDFTLTISSLQPEDFATYYCQQTYSTPWTFGQGTKVEIKRTVAAPSVFIFPPSDEQLKSGTASVVCLLNNFYPREAKVQWKVDNALQSGNSQESVTEQDSKDSTYSLSSTLTLSKADYEKHKVYACEVTHQGLSSPVTKSFNRGECGGGGSGGGGSGGGGSGGGGSGGGGSGGGGSGGGGSGGGGSGGGGSGGGGSGGGGSGGGGSGGGGSGGGGSEVQLLESGGGLVQPGGSLRLSCAASGFPFSQHGMHWVRQAPGKGLEWVSAIDRSGSYIYYADSVKGRFTISRDNSKNTLYLQMNSLRAEDTAVYYCARDTYGGKVTYFDYWGQGTLVTVSSASTKGPSVFPLAPSSKSTSGGTAALGCLVKDYFPEPVTVSWNSGALTSGVHTFPAVLQSSGLYSLSSVVTVPSSSLGTQTYICNVNHKPSNTKVDKKVEPKSCGGGGSGGGGSGGGGSGGGGSGGGGSGG[about 200 residues omitted]
chain 2: [human IgG1 Fc omitted]GGGGSGGGGSGGGGSGGGGSGGGGSGGGGSGGGGSGGGGSGGGGSGGGGSGGGGSGGGGSGGGGSGGGGS[human IgG1 Fc omitted]GGGGSGGGGSGGGGSGGGGSGGGGSGGSSQIRQNYSTDVEAAVNSLVNLYLQASYTYLSLGFYFDRDDVALEGVSHFFRELAEEKREGYERLLKMQNQRGGRALFQDIKKPAEDEW
chain 3: DIQMTQSPSSLSASVGDRVTITCRASQGISSHLAWYQQKPGKAPKLLIYDASNLETGVPSRFSGSGSGTDFTLTISSLQPEDFATYYCQQTYSTPWTFGQGTKVEIKRTVAAPSVFIFPPSDEQLKSGTASVVCLLNNFYPREAKVQWKVDNALQSGNSQESVTEQDSKDSTYSLSSTLTLSKADYEKHKVYACEVTHQGLSSPVTKSFNRGECGGGGSGGGGSGGGGSGGGGSGGGGSGGGGSGGGGSGGGGSGGGGSGGGGSGGGGSGGGGSGGGGSGGGGSEVQLLESGGGLVQPGGSLRLSCAASGFPFSQHGMHWVRQAPGKGLEWVSAIDRSGSYIYYADSVKGRFTISRDNSKNTLYLQMNSLRAEDTAVYYCARDTYGGKVTYFDYWGQGTLVTVSSASTKGPSVFPLAPSSKSTSGGTAALGCLVKDYFPEPVTVSWNSGALTSGVHTFPAVLQSSGLYSLSSVVTVPSSSLGTQTYICNVNHKPSNTKVDKKVEPKSCGGGGSGGGGSGGGGSGGGGSGGGGSGGGKTPDAMKAAMALEKKLNQALLDLHALGSARTDPHLCDFLETHFLDEEVKLIKKMGDHLTNLHRLGGPEAGLGEYLFERLTLRHD
As for B1, the “IC50 SARS-CoV2 PsV (MB)” value in assay [1] is 14 µg/mL. The “Median IC50” value in assay [2] is 14 µg/mL and 6.1 nM.
